This is an account of results in article PMC11911400, “Mechanism of ASF1 engagement by CDAN1” (Nature Communications, 2025).

Amino acid sequences for entries named in this document (tags omitted).
UniProt Q9Y294: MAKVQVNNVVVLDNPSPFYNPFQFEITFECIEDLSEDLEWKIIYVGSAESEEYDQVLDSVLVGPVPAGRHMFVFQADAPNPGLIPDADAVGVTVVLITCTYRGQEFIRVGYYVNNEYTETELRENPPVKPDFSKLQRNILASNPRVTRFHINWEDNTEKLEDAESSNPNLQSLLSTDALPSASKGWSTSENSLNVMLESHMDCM
UniProt Q9NVP2: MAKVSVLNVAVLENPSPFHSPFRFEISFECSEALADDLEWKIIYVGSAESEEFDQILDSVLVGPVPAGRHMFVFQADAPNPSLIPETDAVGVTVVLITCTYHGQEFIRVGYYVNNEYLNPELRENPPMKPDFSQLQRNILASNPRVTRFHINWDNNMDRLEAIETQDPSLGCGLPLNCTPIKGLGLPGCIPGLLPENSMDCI

Test [1] addresses T1, endogenous CDIN1 with a C-terminal HaloTag-FLAG (HF) tag (human (endogenous in Flp-In 293 T-REx)) (UniProt Q9Y2V0).
T1 sequence: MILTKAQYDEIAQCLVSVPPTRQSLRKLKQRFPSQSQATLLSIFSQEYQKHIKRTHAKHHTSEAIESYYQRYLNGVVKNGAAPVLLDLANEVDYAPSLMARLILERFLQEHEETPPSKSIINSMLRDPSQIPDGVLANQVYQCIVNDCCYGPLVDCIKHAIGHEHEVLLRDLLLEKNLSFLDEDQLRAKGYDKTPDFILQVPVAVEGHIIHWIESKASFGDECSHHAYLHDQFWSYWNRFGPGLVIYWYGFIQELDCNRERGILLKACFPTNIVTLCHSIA
Description: co-IP; anti-FLAG M2 agarose IP of endogenously HaloTag-FLAG tagged CDAN1 or CDIN1 from Flp-In 293 T-REx lysates; IP buffer 50 mM HEPES pH 7.5, 100 mM KOAc, 2.5 Mg(OAc)2, 1% Triton X-100, 1 mM DTT; immunoblotting.

Test [2] concerns the target T2, Strep-CDAN1 HMHA1* BDA2* (human) (UniProt Q8IWY9).
T2 sequence: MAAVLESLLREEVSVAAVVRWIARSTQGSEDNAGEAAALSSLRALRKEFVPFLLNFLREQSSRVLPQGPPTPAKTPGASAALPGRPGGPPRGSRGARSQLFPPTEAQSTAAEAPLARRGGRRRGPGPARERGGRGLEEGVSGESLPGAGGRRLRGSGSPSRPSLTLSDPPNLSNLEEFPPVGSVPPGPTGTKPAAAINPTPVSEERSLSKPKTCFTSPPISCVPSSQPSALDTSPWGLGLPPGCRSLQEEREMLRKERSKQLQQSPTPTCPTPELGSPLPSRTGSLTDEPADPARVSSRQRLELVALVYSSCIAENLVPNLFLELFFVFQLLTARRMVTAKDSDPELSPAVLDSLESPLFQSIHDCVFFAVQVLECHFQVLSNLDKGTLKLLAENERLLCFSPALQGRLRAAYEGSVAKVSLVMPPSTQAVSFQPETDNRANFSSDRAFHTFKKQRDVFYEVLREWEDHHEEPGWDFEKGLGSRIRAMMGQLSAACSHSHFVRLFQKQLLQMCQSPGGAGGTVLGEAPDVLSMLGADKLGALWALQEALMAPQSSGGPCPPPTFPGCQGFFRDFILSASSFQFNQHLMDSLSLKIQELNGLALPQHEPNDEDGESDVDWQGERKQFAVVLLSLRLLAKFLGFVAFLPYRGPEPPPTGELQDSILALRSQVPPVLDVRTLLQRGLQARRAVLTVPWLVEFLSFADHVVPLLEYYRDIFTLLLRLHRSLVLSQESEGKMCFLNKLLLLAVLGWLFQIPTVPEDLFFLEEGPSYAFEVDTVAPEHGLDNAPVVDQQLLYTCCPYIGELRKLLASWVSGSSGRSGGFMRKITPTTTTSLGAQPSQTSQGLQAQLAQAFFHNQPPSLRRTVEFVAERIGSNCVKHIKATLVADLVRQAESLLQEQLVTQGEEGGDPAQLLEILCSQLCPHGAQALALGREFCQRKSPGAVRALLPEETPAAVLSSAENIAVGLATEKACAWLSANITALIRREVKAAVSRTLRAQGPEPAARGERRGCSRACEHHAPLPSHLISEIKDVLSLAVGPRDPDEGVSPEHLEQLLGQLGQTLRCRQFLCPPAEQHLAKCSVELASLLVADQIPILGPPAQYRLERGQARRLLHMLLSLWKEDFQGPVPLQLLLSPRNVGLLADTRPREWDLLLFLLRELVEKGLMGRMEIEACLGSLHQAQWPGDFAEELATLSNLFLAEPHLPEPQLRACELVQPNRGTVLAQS
Description: pull-down; Strep-Tactin pulldown of transiently transfected ST-CDAN1 variants from Flp-In 293 T-REx lysates; endogenous ASF1A, ASF1B and CDIN1 detected by immunoblotting; IP buffer with 1% Triton X-100, 1 hr at 4 °C. In general terms: A western blot detects proteins with antibodies after separation by electrophoresis.

Test [3] has as its target T3, HMHA1* BDA1* ST-CDAN1 (human) (UniProt Q8IWY9).
T3 sequence: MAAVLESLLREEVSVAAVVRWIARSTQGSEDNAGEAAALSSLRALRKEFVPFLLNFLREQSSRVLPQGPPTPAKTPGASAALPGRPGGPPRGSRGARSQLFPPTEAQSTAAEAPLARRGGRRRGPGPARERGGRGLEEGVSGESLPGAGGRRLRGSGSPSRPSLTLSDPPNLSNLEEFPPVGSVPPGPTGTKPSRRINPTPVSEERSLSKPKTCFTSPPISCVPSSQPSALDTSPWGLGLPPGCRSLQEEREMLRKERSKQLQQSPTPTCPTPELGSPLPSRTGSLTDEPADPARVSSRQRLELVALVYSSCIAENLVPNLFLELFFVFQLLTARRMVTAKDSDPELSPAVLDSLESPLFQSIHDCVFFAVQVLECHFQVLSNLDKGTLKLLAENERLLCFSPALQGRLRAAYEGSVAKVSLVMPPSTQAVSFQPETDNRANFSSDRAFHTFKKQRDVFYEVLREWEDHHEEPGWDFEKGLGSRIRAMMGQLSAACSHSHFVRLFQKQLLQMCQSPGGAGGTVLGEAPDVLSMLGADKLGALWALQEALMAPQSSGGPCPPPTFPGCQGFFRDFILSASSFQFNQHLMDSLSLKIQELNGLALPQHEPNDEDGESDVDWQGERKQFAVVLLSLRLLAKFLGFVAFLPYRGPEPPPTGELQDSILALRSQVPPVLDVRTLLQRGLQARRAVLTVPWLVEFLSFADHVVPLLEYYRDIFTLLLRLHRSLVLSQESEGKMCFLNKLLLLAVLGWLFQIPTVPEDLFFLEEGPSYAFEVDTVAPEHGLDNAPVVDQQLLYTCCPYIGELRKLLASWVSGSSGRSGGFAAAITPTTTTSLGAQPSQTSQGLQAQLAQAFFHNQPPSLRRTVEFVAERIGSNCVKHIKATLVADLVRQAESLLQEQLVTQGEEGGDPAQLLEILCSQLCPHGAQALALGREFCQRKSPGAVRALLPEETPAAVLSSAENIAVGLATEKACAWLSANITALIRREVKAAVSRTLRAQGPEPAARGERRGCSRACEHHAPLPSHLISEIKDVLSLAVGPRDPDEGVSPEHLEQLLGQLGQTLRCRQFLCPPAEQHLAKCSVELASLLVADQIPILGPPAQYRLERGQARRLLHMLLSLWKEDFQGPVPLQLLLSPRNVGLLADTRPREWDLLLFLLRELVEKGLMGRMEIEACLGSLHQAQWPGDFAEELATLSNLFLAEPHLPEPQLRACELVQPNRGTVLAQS
Described as above.

Results are given in words; binding and its absence hold for the method and conditions named. Binding seen in cells or lysates may run through a third protein. Some results given as binding are weak or reduced against the parent protein; the word gives no strength. For some of these results: Sequences can lack the tags named with a protein.

“endogenous ASF1A (from UniProt Q9Y294 1-204)”: the binding result in test [1] was “binds”.
Same read-out and setting: as for “endogenous ASF1B (from UniProt Q9NVP2 1-202)”, the entry is “binds”.

B1: FLAG-tagged CDIN1 (F-CDIN1) (natural protein, UniProt Q9Y2V0 1-281, looked up)
chain: MILTKAQYDEIAQCLVSVPPTRQSLRKLKQRFPSQSQATLLSIFSQEYQKHIKRTHAKHHTSEAIESYYQRYLNGVVKNGAAPVLLDLANEVDYAPSLMARLILERFLQEHEETPPSKSIINSMLRDPSQIPDGVLANQVYQCIVNDCCYGPLVDCIKHAIGHEHEVLLRDLLLEKNLSFLDEDQLRAKGYDKTPDFILQVPVAVEGHIIHWIESKASFGDECSHHAYLHDQFWSYWNRFGPGLVIYWYGFIQELDCNRERGILLKACFPTNIVTLCHSIA
notes: C15orf41); cDNA synthesized by IDT; source: Expi293, transiently transfected, in lysate and purified in complexes (anti-FLAG, Strep-Tactin); not shown: 3xFLAG, N-terminal, kept
Regarding B1, the binding result in test [2] and in test [3] was “binds” in each case.
